Values joined by “and” are separate entries in the source; they are usually repeats but may differ in a detail not shown here. Equal entries are not always repeated. Out of some 54,000 compounds screened, about 120 (0.22%) were called active. This list was built around the results that the source calls inconclusive (neither active nor inactive); the mix of calls is not that of the screen. Calls come from the whole dose curve; as a rule, active = well fitted inhibition curve with a large enough effect; inconclusive = small, poorly fitted or top-dose-only effect, or effect the other way; inactive = flat fitted curve, though single readings scatter. A potency beside an inconclusive call is a rough fit, not a confirmed value.
These molecules were tested against Fumarate hydratase, mitochondrial (Homo sapiens) (UniProt P07954) (assay: Identification of activators of human fumarate hydratase by quantitative high-throughput screening). Conditions: FH coupled MDH/diaphorase resazurin fluorescence, 15 min; activity change, negative = inhibition: at 79.9 µM (top of the series).
Chain of UniProt P07954 (P07954 whole entry, looked up): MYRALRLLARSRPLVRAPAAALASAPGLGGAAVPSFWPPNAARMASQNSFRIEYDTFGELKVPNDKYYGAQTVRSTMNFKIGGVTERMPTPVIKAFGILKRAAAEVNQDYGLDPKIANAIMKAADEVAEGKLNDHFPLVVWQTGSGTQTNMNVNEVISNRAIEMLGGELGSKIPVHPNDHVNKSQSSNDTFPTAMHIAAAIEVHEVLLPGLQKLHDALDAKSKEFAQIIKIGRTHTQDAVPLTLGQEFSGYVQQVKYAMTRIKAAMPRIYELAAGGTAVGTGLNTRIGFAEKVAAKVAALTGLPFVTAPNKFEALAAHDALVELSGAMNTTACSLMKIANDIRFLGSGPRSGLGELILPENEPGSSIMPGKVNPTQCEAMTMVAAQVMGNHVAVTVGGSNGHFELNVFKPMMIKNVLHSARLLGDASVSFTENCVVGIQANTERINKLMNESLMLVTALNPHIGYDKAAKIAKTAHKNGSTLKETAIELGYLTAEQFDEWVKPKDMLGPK
% is set by controls: 0 for no effect and ±100 for the full control effect; potency is the fitted concentration of half-maximal effect; tags give direction and shape of the fitted curve.
Note: the screen sought activators but most active calls are inhibition curves; nearly all actives have a fitted effect of over 45% in size.

SMILES | Potency | activity change, negative = inhibition
CCc1nn2c(=O)cc(COC(=O)C(CC)c3ccccc3)nc2s1 (stereo not drawn) | inactive | 
COc1ccc(C(=O)NCCn2cc(SCC(=O)Nc3ccc4c(c3)OCCO4)c3ccccc32)cc1OC | inconclusive: 35.5 µM [inhibitor, partial curve, poor fit] | 
Cc1ccc(S(=O)(=O)NCCc2csc(-c3cccc(F)c3)n2)cc1 | inconclusive: 56.2 µM [inhibitor, partial curve, poor fit] | 
CCCCN(CC)C(=O)c1cc2c(=O)n3cccc(C)c3nc2s1 | inconclusive: 28.2 µM [inhibitor, partial curve] | 
COc1cc(Cl)c(C)cc1NC(=O)c1cnc(N2CCOCC2)c2ccccc12 | inconclusive: 25.1 µM [inhibitor, single point] | 
COc1ccc(CCNC(=O)C2COc3ccccc3C2)cc1OC (stereo not drawn) | inconclusive: 35.5 µM [inhibitor, single point] | 
NC(=O)c1cccc(-c2cc(OC(=O)NC3CCCCC3)ccc2O)c1 | inactive | 
O=C(Nc1ccc(Cl)cc1)N1CCC(c2ccccc2)C1 (stereo not drawn) | inactive | 
CCCN(C(=O)Cn1ncc2c([nH]c3ccc(C)cc32)c1=O)c1ccccc1C | inactive | 
CCOC(=O)c1cccc2c1N[C@@H](c1ccc(F)cc1)[C@H]1CC=C[C@@H]21 | inconclusive: 50.1 µM [inhibitor, single point] | 
O=C(O)c1ccc(-c2cc3cccnc3c(-c3ccc4nonc4c3)n2)cc1 | inactive | 
CC1=Nc2cc(C(=O)NCCc3ccc(Cl)cc3)ccc2Sc2c(C)ccc(C)c21 | inconclusive: 50.1 µM [inhibitor, single point] | 
Cc1ccc(N2CCN(C(=O)c3c(C)oc4nc(C)nc(N5CCCC5)c34)CC2)c(C)c1 | inconclusive: 35.5 µM [inhibitor, single point] | 
C=C1CC/C=C(/CO)C(=O)C[C@@H]2[C@@H]1C[C@@]2(C)COC(C)=O | inactive | 
O=C(c1ccccc1Cl)N1CCN(CCc2ccccn2)CC1 | inconclusive: 35.5 µM [inhibitor, partial curve] | 
COc1cccc(CN2CCc3nc(N4CCN(C)CC4)ncc3C2)c1 | inactive | 
COc1ccc(-c2cc(C)no2)cc1S(=O)(=O)N1CC(C)Oc2ccccc21 (stereo not drawn) | inconclusive: 31.6 µM [inhibitor, partial curve, poor fit] | 
O=C(CSc1ccc(-c2cccs2)nn1)Nc1cccc(F)c1 | inconclusive: 35.5 µM [inhibitor, single point] | 
CO[C@@H](Cc1ccc(OCCc2nc(-c3ccccc3)oc2C)c2ccsc12)C(=O)O | inconclusive: 11.2 µM [activator, partial curve, poor fit] | 
CC(C)(C)c1ccc(S(=O)(=O)c2cnc(SCC(=O)Nc3ccc(F)c(Cl)c3)[nH]c2=O)cc1 | inconclusive: 35.5 µM [inhibitor, partial curve, poor fit] | 
O=C(NCc1ccco1)c1c[nH]c2ccc(S(=O)(=O)Nc3ccc(F)cc3F)cc2c1=O | inconclusive: 35.5 µM [inhibitor, partial curve, poor fit] | 

SMILES | Potency | activity change, negative = inhibition
CCS(=O)(=O)c1nc2ccccc2n1CC(=O)Nc1ccccc1C(=O)OC | inconclusive: 39.8 µM [inhibitor, partial curve, poor fit] | 
CCN(CCCNC(=O)CSc1cc(=O)n(C)c2cc(Cl)ccc12)c1cccc(C)c1 | inconclusive: 28.2 µM [inhibitor, partial curve] | 
Fc1ccc(C(Nc2ccc(Cl)c(C(F)(F)F)c2)c2nnc(-c3ccccc3)o2)cc1 (stereo not drawn) | inconclusive: 11.2 µM [inhibitor, partial curve, poor fit] | 
COc1ccc(-c2cc(C(F)(F)F)nc(NCc3ccccc3)n2)cc1 | inconclusive: 39.8 µM [inhibitor, single point] | 
COc1cccc(NC(=O)C(=O)NCC(c2ccc3c(c2)OCO3)N2CCOCC2)c1 (stereo not drawn) | inactive | 
CCc1ccccc1N(C)S(=O)(=O)c1ccc2[nH]cc(C(=O)NCCOC)c(=O)c2c1 | inactive | 
CC(C)(O)CCc1ccc(OCc2cc(-c3cccc(OC(F)F)c3)c3ncccc3c2)cc1 | inconclusive: 39.8 µM [inhibitor, partial curve, poor fit] | 
Cc1ccc(C(=O)c2cn(Cc3ccccc3F)c3cc4c(cc3c2=O)OCO4)cc1 | inconclusive: 39.8 µM [inhibitor, single point] | 
Cc1cccc(N2CCN(S(=O)(=O)c3ccc(F)c(C(=O)Nc4cccc(Cl)c4C)c3)CC2C)c1 (stereo not drawn) | inconclusive: 44.7 µM [inhibitor, partial curve, poor fit] | 
COc1ccc(CCc2nc3cc(-c4c(C)noc4C)ccc3n2C[C@H](C)N2CCOCC2)cc1Cl | inactive | 
O=C(CC(c1cccs1)N1Cc2ccccc2C1=O)Nc1ccccc1 (stereo not drawn) | inactive | 
O=c1cc2nc(-c3ccccc3)nc(SCc3cccc(Br)c3)n2[nH]1 | inconclusive: 35.5 µM [inhibitor, partial curve, poor fit] | 
CC(=O)OCC(=O)[C@@]1(O)CC[C@H]2[C@@H]3CCC4=CC(=O)C=C[C@]4(C)[C@@H]3[C@@H](O)C[C@@]21C | inactive | 
CCOC(=O)c1ccc2ncc(C(=O)OCC)c(NCCc3ccc(OC)c(OC)c3)c2c1 | inconclusive: 50.1 µM [inhibitor, single point] | 
COc1ccc(OC)c(NC(=O)Cn2ccn(-c3ccc(F)cc3)c(=O)c2=O)c1 | inactive | 
Cc1nn2c(=O)cc(COC(=O)c3ccccc3NC(=O)C(C)C)nc2s1 | inconclusive: 11.2 µM [inhibitor, single point] | 
Cc1csc2nc(-c3cccc(NC(=O)c4ccccc4F)c3)cn12 | inconclusive: 17.8 µM [inhibitor, partial curve, poor fit] | 
COc1cc(/C=C(\C#N)C(=O)c2ccc(O)c(O)c2)cc(I)c1O | active: 7.94 µM | 
Cc1ccc(CNC(=O)c2cnn(-c3ccc(F)cc3F)c2C2CCN(C(=O)OC(C)(C)C)CC2)cc1 | inconclusive: 25.1 µM [inhibitor, single point] | 
Cc1cccc(C(=O)Nc2sc3c(c2C(=O)O)CCCC3)c1 | inconclusive: 25.1 µM [inhibitor, partial curve] | 
COC(=O)c1c(NC(=O)c2c(OC)cccc2OC)sc2c1CCCC2 | inconclusive: 35.5 µM [inhibitor, single point] | 

SMILES | Potency | activity change, negative = inhibition
COc1nc2sc(C(=O)NC3CC3)c(N)c2c(C)c1Cl | inactive | 
CCOC(=O)N1CCc2c(sc(NCc3cccs3)c2C(=O)Nc2cc(OC)ccc2OC)C1 | inactive | 
O=C1CN(C(=O)COc2ccc(Cl)cc2Cl)C(c2ccc(F)cc2)c2cc(F)ccc2N1 (stereo not drawn) | inconclusive: 35.5 µM [inhibitor, partial curve, poor fit] | 
O=C(c1ccc(-c2ccc(Cl)cc2)o1)N(Cc1ccccn1)c1ccc(N2CCNCC2)cc1 | inactive | 
Cc1cc(C(C#N)c2ccc(Cl)cc2)c(Cl)cc1NC(=O)c1cc(I)cc(I)c1O (stereo not drawn) | inconclusive: 17.4 µM [inhibitor, partial curve, poor fit] and inconclusive: 39.8 µM [inhibitor, single point] | 
CCC(=O)Nc1ccccc1-c1nc2ccccc2n(C(CC)C(=O)Nc2cccc(C(C)=O)c2)c1=O (stereo not drawn) | inconclusive: 50.1 µM [inhibitor, single point] | 
COc1ccc(/C=C/c2onc(C)c2S(=O)(=O)N2CCC(C(=O)N3CCC(C)CC3)CC2)cc1 | inconclusive: 44.7 µM [inhibitor, partial curve, poor fit] | 
Cc1ccccc1CSc1nc(-c2ccccc2)nc2c1Cc1c(CO)cnc(C)c1O2 | inconclusive: 39.8 µM [inhibitor, partial curve, poor fit] | 
CC1CCC23COC(=O)C2=CC(O)CC3C1(C)CCC1=CC(=O)OC1O (stereo not drawn) | inactive | 
COc1cc(C(=O)NCCSc2c(-c3ccccc3)[nH]c3ccccc23)cc(OC)c1OC | inconclusive: 25.1 µM [inhibitor, single point] | 
CC(=O)NCCNc1cc(Cl)nn2c(-c3cccc(S(=O)(=O)N(C)C)c3)c(C)nc12 | inactive | 
CCOc1ccc(NC(=O)NCCCN2CCN(c3ccc(OC)cc3)CC2)cc1 | inactive | 
COc1ccc(CC(=O)NCCc2csc(-c3cccc(F)c3)n2)cc1OC | inactive | 
COc1ccc(-c2oc3ncn4nc(COc5ccc(Cl)cc5)nc4c3c2-c2ccc(OC)cc2)cc1 | inconclusive: 44.7 µM [inhibitor, single point] | 
Cc1nn(C)c2c1c(C(F)(F)F)cc(=O)n2CC(=O)Nc1ccc(F)cc1F | inactive | 
CC(C)Oc1ccc(C(=O)NCCc2csc(-c3cccc(F)c3)n2)cc1 | inconclusive: 50.1 µM [inhibitor, partial curve, poor fit] | 
Cc1ccccc1NC(=O)c1c(C)oc2ccc(O)c(CN(C)Cc3ccccc3)c12 | inconclusive: 39.8 µM [inhibitor, partial curve, poor fit] | 
CCCSc1nnc(NC(=O)c2cc(=O)c3ccccc3o2)s1 | inconclusive: 35.5 µM [inhibitor, single point] | 
C=CCN1CCc2c(cc(O)c(O)c2Cl)C(c2ccccc2)C1 (stereo not drawn) | inconclusive: 22.4 µM [inhibitor, single point] | 
COc1cc(OC)c(NC(=O)C(CC(C)C)N2Cc3ccccc3C2=O)cc1Cl (stereo not drawn) |  | inconclusive: -36.5% [inhibitor]
CCOc1ccccc1NC(=O)CSc1cn(CC(=O)N2CCCCCC2)c2ccccc12 | inconclusive: 31.6 µM [inhibitor, partial curve, poor fit] | 
